14 molecules from PMC12136788 can be followed below.

The list shows a part of the results.

T1: UNK ZnF1-3 (human, UniProt Q9C0B0 31-174)
T1 sequence: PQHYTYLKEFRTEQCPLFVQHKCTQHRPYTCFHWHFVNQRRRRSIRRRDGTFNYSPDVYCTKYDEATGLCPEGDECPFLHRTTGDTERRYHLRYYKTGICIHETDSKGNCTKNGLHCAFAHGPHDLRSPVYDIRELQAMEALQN

B1: chr5:71494580:71494581:+_ENSG00000131711_ENST00000296755|hu_hu|FALSE|FALSE (ssRNA)
RNA: GGGAGUUCUACAGUCCGACGAUCAGAGGAACUGUGGCAAGUUGCUGUUUUCUCUUUGACUGCAGAGGUAGAAUCUGAAAAAGUAGGUGAAUAUAAAGGAGAGGACUCUCGUGGGGUGAGUGGAGAGAUAUCAGAUUUUGGAGACAACAGAGGAUUGAGCAUCA
B2: chr12:48362563:48362564:+_ENSG00000134291_ENST00000256686|hu_hu|hu_hu_hu_mus_False|18_88 (ssRNA)
RNA: GGGAGUUCUACAGUCCGACGAUCUCCGUCAAGCCCUUCGAUAGACCCAUAGACUCUAAACUGUAAUCACUUUGUAUGGGGAAGGAAAAGAAACGCCAAAAACUUUCCAAAAAGCGGUUCAAAAAGCAGGCGGGAGGGGGAGGUCAACAGAGGAUUGAGCAUCA
B3: 46801812_46804828_2414_CDS_ENSG00000175216_ENST00000415402|human|control|control (ssRNA)
RNA: GGGAGUUCUACAGUCCGACGAUCGGGACCAACAUACAGAUACAUCACGCCAAGCAGGGUUAUGGCAGCAGUCCUCACAGCUGGGUUUGUUGCAGCAAGAGCUGUCUUCACAUUGCUAAUGAAAGCUUUGACAUUCAACCCAGACAACAGAGGAUUGAGCAUCA
B4: 39339438_39339558_279_5pUTR_ENSG00000214114_ENST00000397572|human|control|control (ssRNA)
RNA: GGGAGUUCUACAGUCCGACGAUCUUGCAGUAGCCGAGGAGGGUGUUUAGAAUCAUAUAUUUUGGCUUCAGCUUUUAUCUUUGGAGUCUCCUUGAGUCGUGGCUGACUUGAUGUGGGCCUCUGGAGGAUGAGCAGUAACGAGCUCAACAGAGGAUUGAGCAUCA
B5: 40831691_40831811_1298_3pUTR_ENSG00000145592_ENST00000274242|human|control|control (ssRNA)
RNA: GGGAGUUCUACAGUCCGACGAUCUUCCAGCAAUUCAUGUUCCCUUCAACUGCCCCUGCCCUCUCACUCAGCAGUCCAGUUGACUUUGUCCCUUCAUUUUAAAAAAACAAAAAAAACCCCCAACCCUGUCAAUAAACCACGAAACAACAGAGGAUUGAGCAUCA
B6: chr4:95690885:95690886:+_ENSMUSG00000028572_ENSMUST00000156910|mus_mus|mus_mus_mus_hu_False|88_88 (ssRNA)
RNA: GGGAGUUCUACAGUCCGACGAUCUUUAGAAAAUGUUAAAUACCAUGAGCAUGCUAAUUCAAAGGCUUAUUUUAUUUUACCAGAAGUCACAGGCAAGCAGACACUACAAGAAUAUAUGAAAAUGAAACUCAACAAUAUAACUGUCAACAGAGGAUUGAGCAUCA
B7: chr5:132424205:132424206:+_ENSG00000170606_ENST00000304858|hu_hu|motif|central (ssRNA)
RNA: GGGAGUUCUACAGUCCGACGAUCGAUGGCACACUGCAAUGCACAGCCUCGAGUGACAGCUUCAUCAGCAUUUAAUGUUGUACGGAGUUCUUUACCGAAAAAUUUGCUGAUCUUCUCUUUUACCGCAGGGAUUCGUGUAGCACCCAACAGAGGAUUGAGCAUCA
B8: chr16:17389515:17389516:-_ENSMUSG00000041720_ENSMUST00000036161|mus_hu|motif|central (ssRNA)
RNA: GGGAGUUCUACAGUCCGACGAUCUCAGAUUCAAUCAGAAAAAUGCCCAAUGCAAUCACUGCAUCUCUCCGUCUUUCAUCGGACUGGAAGAUCCCAUGGAAAUCCACUGGACACAUGCAAAGAAGCUUUUGGACCUUCUCCAAGCAACAGAGGAUUGAGCAUCA
B9: chr2:198351390:198351391:-_ENSG00000144381_ENST00000345042|hu_hu|hu_hu_hu_mus_False|18_88 (ssRNA)
RNA: GGGAGUUCUACAGUCCGACGAUCUCAUUCCCACCCUCCACAGAAAGGCUGCUUAACAACUCUCAUGUGGUGACACAGCGCUACAGUCCUGAUGCUCACAGAACAGUAGAGAUGCCUCCUCAGUGAUAGUUGAAAGCAGGACACCAACAGAGGAUUGAGCAUCA
B10: chr15:98684510:98684511:-_ENSMUSG00000048154_ENSMUST00000023741|mus_hu|FALSE|FALSE (ssRNA)
RNA: GGGAGUUCUACAGUCCGACGAUCGGCCUUUUGCAGGUAGGGGGCUUUGUCAGCUGCUGGAACCUUUCUCCAGAGCUUCAUGAUUUGUUUGCAACGGCUUGACCAGUCUGGGUAGUCUUGCUUGAGAUUAGGAAAAUUAAUGUUCAACAGAGGAUUGAGCAUCA
B11: 124814293_124814413_2385_3pUTR_ENSG00000196177_ENST00000358776|human|control|control (ssRNA)
RNA: GGGAGUUCUACAGUCCGACGAUCAUAAAGUGCAAUAACCAUGACUGAAGAAACAGUAUUCAAUUAAAAUACAGAAAUUGUCAACUGAAAAAUAGUGCAUGACAGAAUAUCCAACACUGUAUUGAAUAUUUUCUGAUUAUUAAACAACAGAGGAUUGAGCAUCA
B12: chr10:33190432:33190433:-_ENSG00000150093_ENST00000302278|hu_mus|hu_hu_hu_mus_True|28_88 (ssRNA)
RNA: GGGAGUUCUACAGUCCGACGAUCUACAUUUUCCAAACCUGCAUGUGAGUAAAACCAUGGCCACAGAGCCCCAAAACUACCCUACUGUGACUAAGAUGCUGCUGCUGUUGCAUUCAGGUUGCAAAAUCCGCCUGAGUAGGAUUCCAACAGAGGAUUGAGCAUCA
B13: chr14:76904430:76904431:+_ENSMUSG00000022010_ENSMUST00000022587|mus_hu|FALSE|FALSE (ssRNA)
RNA: GGGAGUUCUACAGUCCGACGAUCUGCAGCCAAAAACACCCUCGUGGAAAAAAAGAGGGAACACCAGCAGCCUUGUAUAAGCUAGAUAAAAUCUUCUGGCUUUCCGCAGCCCAGGGAGAAACAGAAAACGGCAGCCCUAAUUUACAACAGAGGAUUGAGCAUCA
B14: chr10:5838811:5838812:-_ENSG00000057608_ENST00000380191|hu_mus|FALSE|FALSE (ssRNA)
RNA: GGGAGUUCUACAGUCCGACGAUCAACAUUCCAGUCUCUUCCUCUUCCCAUUGAUGCUGGCGGUUGUCCUGGUAAUUUAAACCUUUUGUAUAAAUCUUCCAGCGGUGUUAUAGACGCACUUUCUCCUCCAUAGUAUGGGUUCUGCAACAGAGGAUUGAGCAUCA

The assay addresses T1, UNK ZnF1-3. The experiment in a line: nsRBNS (natural sequence RNA bind-n-seq); RBNS binding buffer (assumed for nsRBNS): 25 mM Tris pH 7.5, 150 mM KCl, 3 mM MgCl2, 0.01% Triton X-100, 500 ug/ml BSA, 20 U/ml SUPERase-In, 4 C; UNK is unkempt and MSI1 is Musashi-1; names of the RNAs are library labels; protein concentration not given here; high values mean tight binding.
B1 had a binding signal of 2.31 enrichment R.

Regarding B2, the binding signal worked out at 2.4 enrichment R. The molecule B3 registered a binding signal of 0.868 enrichment R.

With B4, the binding signal is 1.41 enrichment R. For the molecule B5, the binding signal worked out at 1.93 enrichment R. For B6, the binding signal stood at 2.17 enrichment R. For the molecule B7, the binding signal came to 1.26 enrichment R.

Regarding B8, the binding signal came to 0.625 enrichment R. The molecule B9 came in with a binding signal of 0.852 enrichment R.

For B10, the binding signal turned out to be 0.786 enrichment R. With B11 the figure was 1.48 enrichment R. B12 displayed a binding signal of 1.01 enrichment R. With B13 the figure was 2.63 enrichment R; with B14, 0.747 enrichment R.
